Assay results taken from publication PMC3240821 (Structure (London, England : 1993), 2011).
Residue numbers refer to the chain shown, from its start. In names and notes the source's numbering stands.

B1: K125A/K134A Scn mutant (protein, UniProt P80188 21-198, looked up, variant K125A K134A)
Neutrophil …: QDSTSDLIPAPPLSKVPLQQNFQDNQFQGKWYVVGLAGNAILREDKDPQKMYATIYELKEDKSYNVTSVLFRKKKCDYWIRTFVPGCQPGEFTLGNIKSYPGLTSYLVRVVSTNYNQHAMVFFKAVSQNREYFAITLYGRTKELTSELKENFIRFSKSLGLPENHIVFPVPIDQCIDG
B2: Scn: mammalian Siderocalin, family archetype lipocalin (protein, UniProt P80188 21-198, looked up)
Neutrophil …: B1 Neutrophil … with A125K, A134K

Test system: E. coli (strain BL21(DE3)-RIL)
Assay: Bacterial growth inhibition assay, E. coli
Format: cell-based, Escherichia coli
Conditions: 10 μM protein, M9 minimal media, OD600 after 18 hours

Row | Molecule | bacteriostatic effect on E. coli growth
1 | B1 | ablates in vitro bacteriostatic activity
2 | B2 | bacteriostatic
